This passage reports cAMP reporter score and surface expression score results from the GPR68 mutational scans of Howard et al. (2025).

B1: GPR68, Q15743 (parent)
chain: MGNITADNSSMSCTIDHTIHQTLAPVVYVTVLVVGFPANCLSLYFGYLQIKARNELGVYLCNLTVADLFYICSLPFWLQYVLQHDNWSHGDLSCQVCGILLYENIYISVGFLCCISVDRYLAVAHPFRFHQFRTLKAAVGVSVVIWAKELLTSIYFLMHEEVIEDENQHRVCFEHYPIQAWQRAINYYRFLVGFLFPICLLLASYQGILRAVRRSHGTQKSRKDQIQRLVLSTVVIFLACFLPYHVLLLVRSVWEASCDFAKGVFNAYHFSLLLTSFNCVADPVLYCFVSETTHRDLARLRGACLAFLTCSRTGRAREAYPLGAPEASGKSGAQGEEPELLTKLHPAFQTPNSPGSGGFPTGRLA

Data set [1] covers variants of B1. The data set can be described thus: cAMP reporter score (Enrich2 score, wild type = 0); higher = more signal; HEK293T, FACS bins.
Variants of B1 are the subject of data set [2]. The data set can be described thus: surface expression score (Enrich2 score, wild type = 0); higher = more signal; HEK293T, FACS bins.

Scores whose standard error is large were omitted. The source holds two more conditions with little spread; they are left out. Read del as a deletion of the residues named and ins as an insertion between two positions. For some assays here: How much ogerin was present is not stated here.

Regarding M158E, the cAMP reporter score was -0.028 in data set [1] (pH 5.5) and 0.259 in data set [1] (pH 6.5, modulator: ogerin). Moreover, in data set [2], the surface expression score is -1.59.
For the variant M158A, the cAMP reporter score in data set [1] (pH 5.5) was -0.491; in data set [1] (pH 6), -0.101; in data set [1] (pH 6, modulator: ogerin) it was 0.11; in data set [1] (pH 6.5, modulator: ogerin), -0.57. Further, in data set [2], the surface expression score was -0.455.
Taken in the same sequence, the figures for M158H were 0.604, -0.45, 0.21, -0.11 and -0.134.
In the case of M158S, the cAMP reporter score in data set [1] (pH 5.5) was 0.558; in data set [1] (pH 6) it was 0.352; in data set [1] (pH 6, modulator: ogerin), -0.271; in data set [1] (pH 6.5, modulator: ogerin) it was -0.815. Also, in data set [2], the surface expression score was found to be 0.476.
Taken in the same sequence, the figures for M158L were 0.172, -0.834, 0.398, -0.102 and 0.403.
The like results for M158D were, in that order, -0.407, -0.666, -0.632, -0.609 and -1.3.
Regarding M158C, the cAMP reporter score in data set [1] (pH 5.5) is -0.404; in data set [1] (pH 6), -0.297; in data set [1] (pH 6.5, modulator: ogerin), -0.441.
With M158_H159insGSG, the cAMP reporter score in data set [1] (pH 5.5) was -1.27; in data set [1] (pH 6), -0.729; in data set [1] (pH 6, modulator: ogerin), -1.06; in data set [1] (pH 6.5, modulator: ogerin), -1.23. Moreover, the surface expression score in data set [2] was 0.378.
On to L157_M158insGSG, for which the cAMP reporter score is -1.65 in data set [1] (pH 5.5); 0.117 in data set [1] (pH 6); -0.691 in data set [1] (pH 6, modulator: ogerin); -2.19 in data set [1] (pH 6.5, modulator: ogerin). Besides, the surface expression score in data set [2] was -0.082.
On to L157_H159del, for which the cAMP reporter score in data set [1] (pH 5.5) is -1.32; in data set [1] (pH 6), -0.725; in data set [1] (pH 6, modulator: ogerin), -1.09; in data set [1] (pH 6.5, modulator: ogerin) it was -1.25. Also, in data set [2], the surface expression score is -1.51.
Taken in the same sequence, the figures for Y155_L157del were -1.59, -1.61, -0.561, -0.498 and -2.86.
Consider F156_L157del, for which the cAMP reporter score in data set [1] (pH 5.5) was 0.067; in data set [1] (pH 6), 0.456; in data set [1] (pH 6.5, modulator: ogerin), -0.247. Besides, in data set [2], the surface expression score is -2.02.
For the variant M158del, the cAMP reporter score in data set [1] (pH 5.5) is -0.537; in data set [1] (pH 6, modulator: ogerin), -1.63. Also, the surface expression score in data set [2] was -0.954.
In the case of Y155W, the cAMP reporter score in data set [1] (pH 5.5) was -0.209; in data set [1] (pH 6), -1.13; in data set [1] (pH 6, modulator: ogerin), -0.49; in data set [1] (pH 6.5, modulator: ogerin), -1.26. In addition, the surface expression score in data set [2] was -0.754.
Consider Y155T, for which the cAMP reporter score in data set [1] (pH 5.5) was -0.387; in data set [1] (pH 6, modulator: ogerin), -0.113; in data set [1] (pH 6.5, modulator: ogerin) it was -0.581. For the same variant, the surface expression score in data set [2] was found to be 0.489.
Taken in the same sequence, the figures for Y155S were -1.18, -1.29, -2.33 and -2.78.
The like results for Y155F were, in that order, 0.756, -0.213, -0.495 and -0.112.
In the case of Y155L, the cAMP reporter score in data set [1] (pH 5.5) is 0.339; in data set [1] (pH 6), 0.06; in data set [1] (pH 6, modulator: ogerin), -0.492; in data set [1] (pH 6.5, modulator: ogerin), -0.567. The surface expression score in data set [2] was found to be 0.283.
Y155I: the cAMP reporter score in data set [1] (pH 5.5) was 0.498; in data set [1] (pH 6) it was -1.56; in data set [1] (pH 6, modulator: ogerin) it was -0.415. The surface expression score in data set [2] came to 1.26.
Consider Y155Q, for which the cAMP reporter score in data set [1] (pH 5.5) was -1.48; in data set [1] (pH 6), -0.394; in data set [1] (pH 6.5, modulator: ogerin), 1.63.
Y155E: the cAMP reporter score was -0.105 in data set [1] (pH 5.5); -1.01 in data set [1] (pH 6); -1.44 in data set [1] (pH 6, modulator: ogerin); -1.25 in data set [1] (pH 6.5, modulator: ogerin). Also, the surface expression score in data set [2] is -2.72.
Consider Y155P, for which the cAMP reporter score in data set [1] (pH 5.5) is -0.393; in data set [1] (pH 6, modulator: ogerin) it was 0.772; in data set [1] (pH 6.5, modulator: ogerin), -0.623.
As to Y155G, the cAMP reporter score is -0.259 in data set [1] (pH 5.5); -1.12 in data set [1] (pH 6); -1.57 in data set [1] (pH 6, modulator: ogerin); -1.09 in data set [1] (pH 6.5, modulator: ogerin). Also, in data set [2], the surface expression score is -0.838.
On to Y155H, for which the cAMP reporter score was -0.779 in data set [1] (pH 5.5); -0.313 in data set [1] (pH 6); -0.392 in data set [1] (pH 6, modulator: ogerin); -0.632 in data set [1] (pH 6.5, modulator: ogerin). In data set [2], the surface expression score is -0.35.
In the case of Y155K, the cAMP reporter score was -0.617 in data set [1] (pH 5.5); -1.09 in data set [1] (pH 6, modulator: ogerin); -0.415 in data set [1] (pH 6.5, modulator: ogerin). The surface expression score in data set [2] is -1.78.
As for Y155M, the cAMP reporter score in data set [1] (pH 5.5) was 0.463; in data set [1] (pH 6), -0.052; in data set [1] (pH 6, modulator: ogerin), -0.352; in data set [1] (pH 6.5, modulator: ogerin), -1.27. Further, the surface expression score in data set [2] is -0.735.
Take Y155R: the cAMP reporter score is -0.407 in data set [1] (pH 5.5); -1.96 in data set [1] (pH 6); -1.11 in data set [1] (pH 6, modulator: ogerin); -1.53 in data set [1] (pH 6.5, modulator: ogerin). In data set [2], the surface expression score was -0.428.
For the variant Y155N, the cAMP reporter score in data set [1] (pH 5.5) was -0.391; in data set [1] (pH 6), -1.35; in data set [1] (pH 6, modulator: ogerin), -0.707. In data set [2], the surface expression score is -0.29.
With Y155_F156insG, the cAMP reporter score is -0.237 in data set [1] (pH 5.5); -1.2 in data set [1] (pH 6); -1.16 in data set [1] (pH 6, modulator: ogerin); -0.096 in data set [1] (pH 6.5, modulator: ogerin).
In the case of H159D, the cAMP reporter score in data set [1] (pH 5.5) is -0.669; in data set [1] (pH 6), -1.32; in data set [1] (pH 6, modulator: ogerin) it was -2.21. For the same variant, the surface expression score in data set [2] is -0.431.
Regarding H159A, the cAMP reporter score in data set [1] (pH 5.5) was -0.929; in data set [1] (pH 6), -0.701; in data set [1] (pH 6, modulator: ogerin), -1.5; in data set [1] (pH 6.5, modulator: ogerin) it was -1.38. Moreover, the surface expression score in data set [2] is -0.151.
As to M158_E160del, the cAMP reporter score in data set [1] (pH 5.5) was -1.65; in data set [1] (pH 6), -1.47; in data set [1] (pH 6, modulator: ogerin), -2.59; in data set [1] (pH 6.5, modulator: ogerin) it was -1.79. The surface expression score in data set [2] was -0.218.
Taken in the same sequence, the figures for F156_L157insGS were -1.86, -1.45, -1.38, -0.99 and -0.889.
